Measured values: publication PMC9911399, “Two distinct binding modes provide the RNA-binding protein RbFox with extraordinary sequence specificity”
Changes are numbered by the printed parent chain; changes in the protein carry UniProt numbers. Some of the results follow.

T1: RBFOX1 RRM RbFoxmut (Fox-RRM*) (Homo sapiens, UniProt Q9NWB1 109-208, R118D;E147R;N151S;E152T)
T1 sequence: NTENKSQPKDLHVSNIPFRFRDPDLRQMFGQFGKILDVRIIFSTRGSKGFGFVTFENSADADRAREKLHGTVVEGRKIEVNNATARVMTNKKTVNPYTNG

B1: CAUUGCG (DNA:RNA)
RNA: GGGAGACCGGAAUUCAGAUUGUCCCAUUGCGUUAAAUCCCGUCGUAGCCACCA
DNA 1: CAATCTGAATTCCGGTCTCCC
DNA 2: TGGTGGCTACGACGGGATT
B2: CAGGCCA (DNA:RNA)
RNA: B1 RNA with U27G, U28G, G29C, G31A
DNA 1: CAATCTGAATTCCGGTCTCCC
DNA 2: TGGTGGCTACGACGGGATT
B3: UAAACUC (DNA:RNA)
RNA: B1 RNA with C25U, U27A, U28A, G29C, C30U, G31C
DNA 1: CAATCTGAATTCCGGTCTCCC
DNA 2: TGGTGGCTACGACGGGATT
B4: ACCUUCC (DNA:RNA)
RNA: B1 RNA with C25A, A26C, U27C, G29U, G31C
DNA 1: CAATCTGAATTCCGGTCTCCC
DNA 2: TGGTGGCTACGACGGGATT
B5: GCGAUUG (DNA:RNA)
RNA: B1 RNA with C25G, A26C, U27G, U28A, G29U, C30U
DNA 1: CAATCTGAATTCCGGTCTCCC
DNA 2: TGGTGGCTACGACGGGATT
B6: CCGGGCU (DNA:RNA)
RNA: B1 RNA with A26C, U27G, U28G, G31U
DNA 1: CAATCTGAATTCCGGTCTCCC
DNA 2: TGGTGGCTACGACGGGATT
B7: UGAGAUG (DNA:RNA)
RNA: B1 RNA with C25U, A26G, U27A, U28G, G29A, C30U
DNA 1: CAATCTGAATTCCGGTCTCCC
DNA 2: TGGTGGCTACGACGGGATT
B8: UCUAUAU (DNA:RNA)
RNA: B1 RNA with C25U, A26C, U28A, G29U, C30A, G31U
DNA 1: CAATCTGAATTCCGGTCTCCC
DNA 2: TGGTGGCTACGACGGGATT
B9: GUAUCCU (DNA:RNA)
RNA: B1 RNA with C25G, A26U, U27A, G29C, G31U
DNA 1: CAATCTGAATTCCGGTCTCCC
DNA 2: TGGTGGCTACGACGGGATT
B10: UCUAUAG (DNA:RNA)
RNA: B1 RNA with C25U, A26C, U28A, G29U, C30A
DNA 1: CAATCTGAATTCCGGTCTCCC
DNA 2: TGGTGGCTACGACGGGATT
B11: GUUGCAC (DNA:RNA)
RNA: B1 RNA with C25G, A26U, U28G, G29C, C30A, G31C
DNA 1: CAATCTGAATTCCGGTCTCCC
DNA 2: TGGTGGCTACGACGGGATT
B12: UGAGAAA (DNA:RNA)
RNA: GGGAGACCGGAAUUCAGAUUGUCCUGAGAAAUUAAAUCCCGUCGUAGCCACCA
DNA 1: CAATCTGAATTCCGGTCTCCC
DNA 2: TGGTGGCTACGACGGGATT
B13: GAGUAGA (DNA:RNA)
RNA: B1 RNA with C25G, U27G, G29A, C30G, G31A
DNA 1: CAATCTGAATTCCGGTCTCCC
DNA 2: TGGTGGCTACGACGGGATT
B14: UCUAAAU (DNA:RNA)
RNA: B12 RNA with G26C, A27U, G28A, A31U
DNA 1: CAATCTGAATTCCGGTCTCCC
DNA 2: TGGTGGCTACGACGGGATT
B15: UCCCAUC (DNA:RNA)
RNA: B12 RNA with G26C, A27C, G28C, A30U, A31C
DNA 1: CAATCTGAATTCCGGTCTCCC
DNA 2: TGGTGGCTACGACGGGATT
B16: UUGUCCU (DNA:RNA)
RNA: B1 RNA with C25U, A26U, U27G, G29C, G31U
DNA 1: CAATCTGAATTCCGGTCTCCC
DNA 2: TGGTGGCTACGACGGGATT
B17: AGCGCCG (DNA:RNA)
RNA: B1 RNA with C25A, A26G, U27C, U28G, G29C
DNA 1: CAATCTGAATTCCGGTCTCCC
DNA 2: TGGTGGCTACGACGGGATT
B18: AACUGCC (DNA:RNA)
RNA: B1 RNA with C25A, U27C, G31C
DNA 1: CAATCTGAATTCCGGTCTCCC
DNA 2: TGGTGGCTACGACGGGATT
B19: ACCUCAU (DNA:RNA)
RNA: B1 RNA with C25A, A26C, U27C, G29C, C30A, G31U
DNA 1: CAATCTGAATTCCGGTCTCCC
DNA 2: TGGTGGCTACGACGGGATT
B20: AAAGUUC (DNA:RNA)
RNA: B12 RNA with U25A, G26A, A29U, A30U, A31C
DNA 1: CAATCTGAATTCCGGTCTCCC
DNA 2: TGGTGGCTACGACGGGATT
B21: GCAAUUG (DNA:RNA)
RNA: B1 RNA with C25G, A26C, U27A, U28A, G29U, C30U
DNA 1: CAATCTGAATTCCGGTCTCCC
DNA 2: TGGTGGCTACGACGGGATT
B22: CGAUUUG (DNA:RNA)
RNA: B1 RNA with A26G, U27A, G29U, C30U
DNA 1: CAATCTGAATTCCGGTCTCCC
DNA 2: TGGTGGCTACGACGGGATT
B23: AGGGAUA (DNA:RNA)
RNA: B12 RNA with U25A, A27G, A30U
DNA 1: CAATCTGAATTCCGGTCTCCC
DNA 2: TGGTGGCTACGACGGGATT
B24: CGACAAU (DNA:RNA)
RNA: B12 RNA with U25C, G28C, A31U
DNA 1: CAATCTGAATTCCGGTCTCCC
DNA 2: TGGTGGCTACGACGGGATT
B25: GACCUAC (DNA:RNA)
RNA: B1 RNA with C25G, U27C, U28C, G29U, C30A, G31C
DNA 1: CAATCTGAATTCCGGTCTCCC
DNA 2: TGGTGGCTACGACGGGATT
B26: CAAUUCU (DNA:RNA)
RNA: B1 RNA with U27A, G29U, G31U
DNA 1: CAATCTGAATTCCGGTCTCCC
DNA 2: TGGTGGCTACGACGGGATT
B27: UGUGCUU (DNA:RNA)
RNA: B12 RNA with A27U, A29C, A30U, A31U
DNA 1: CAATCTGAATTCCGGTCTCCC
DNA 2: TGGTGGCTACGACGGGATT
B28: UUACGUA (DNA:RNA)
RNA: B12 RNA with G26U, G28C, A29G, A30U
DNA 1: CAATCTGAATTCCGGTCTCCC
DNA 2: TGGTGGCTACGACGGGATT
B29: UCGGUCU (DNA:RNA)
RNA: B12 RNA with G26C, A27G, A29U, A30C, A31U
DNA 1: CAATCTGAATTCCGGTCTCCC
DNA 2: TGGTGGCTACGACGGGATT
B30: AAACUUC (DNA:RNA)
RNA: B1 RNA with C25A, U27A, U28C, G29U, C30U, G31C
DNA 1: CAATCTGAATTCCGGTCTCCC
DNA 2: TGGTGGCTACGACGGGATT
B31: CAGGUGU (DNA:RNA)
RNA: B1 RNA with U27G, U28G, G29U, C30G, G31U
DNA 1: CAATCTGAATTCCGGTCTCCC
DNA 2: TGGTGGCTACGACGGGATT

Molecular target: T1, RBFOX1 RRM RbFoxmut (Fox-RRM*)
Assay: EMSA; HiTS-Eq, 1 nM pool, 10 min; buffer printed only for the single-RNA assays: 10 mM Tris pH 7.5, 150 mM NaCl, 3.4 mM EDTA, 0.001% NP-40, 30 C
Settings: tags: His6 N-terminal (pET28a); label: 5' 32P
Summary of the method: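 Relative association constants, normalised to the cognate motif, were derived by comparing read counts of each RNA species with those of the control reaction. The RNA sequenced was the free fraction, separated by 8% native PAGE after a 10 min equilibration in 50 µL of 1 nM 5′-radiolabelled RNA (7 randomized nucleotides) with increasing concentrations of purified wild-type or mutant RbFox RRM.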

**Q.** How did the binding signal turn out when B1 was run?
**A.** 0.151 KA relative to UGCAUGU

**Q.** For B2, which binding signal is on record?
**A.** 0.093 KA relative to UGCAUGU

**Q.** For B3, which binding signal is on record?
**A.** 0.0578 KA relative to UGCAUGU

**Q.** B4 was tested. Which binding signal did it give?
**A.** 0.0594 KA relative to UGCAUGU

**Q.** Which binding signal does the source give for B5 here?
**A.** 0.206 KA relative to UGCAUGU

**Q.** How did the binding signal turn out when B6 was run?
**A.** 0.0717 KA relative to UGCAUGU

**Q.** How did the binding signal turn out when B7 was run?
**A.** 0.429 KA relative to UGCAUGU

**Q.** How did the binding signal turn out when B8 was run?
**A.** 0.106 KA relative to UGCAUGU

**Q.** With B9 as the binder, how does the binding signal read?
**A.** 0.168 KA relative to UGCAUGU

**Q.** With B10 as the binder, how does the binding signal read?
**A.** 0.133 KA relative to UGCAUGU

**Q.** Which binding signal does the source give for B11 here?
**A.** 0.103 KA relative to UGCAUGU

**Q.** B12 was tested. Which binding signal did it give?
**A.** 0.087 KA relative to UGCAUGU

**Q.** For B13, which binding signal is on record?
**A.** 0.117 KA relative to UGCAUGU

**Q.** Which binding signal does the source give for B14 here?
**A.** 0.0872 KA relative to UGCAUGU

**Q.** With B15 as the binder, how does the binding signal read?
**A.** 0.107 KA relative to UGCAUGU

**Q.** With B16 as the binder, how does the binding signal read?
**A.** 0.0981 KA relative to UGCAUGU

**Q.** How did the binding signal turn out when B17 was run?
**A.** 0.116 KA relative to UGCAUGU

**Q.** How did the binding signal turn out when B18 was run?
**A.** 0.156 KA relative to UGCAUGU

**Q.** Which binding signal does the source give for B19 here?
**A.** 0.117 KA relative to UGCAUGU

**Q.** With B20 as the binder, how does the binding signal read?
**A.** 0.0827 KA relative to UGCAUGU

**Q.** With B21 as the binder, how does the binding signal read?
**A.** 0.0871 KA relative to UGCAUGU

**Q.** Which binding signal does the source give for B22 here?
**A.** 0.081 KA relative to UGCAUGU

**Q.** With B23 as the binder, how does the binding signal read?
**A.** 0.131 KA relative to UGCAUGU

**Q.** For B24, which binding signal is on record?
**A.** 0.0419 KA relative to UGCAUGU

**Q.** With B25 as the binder, how does the binding signal read?
**A.** 0.0986 KA relative to UGCAUGU

**Q.** B26 was tested. Which binding signal did it give?
**A.** 0.062 KA relative to UGCAUGU

**Q.** B27 was tested. Which binding signal did it give?
**A.** 0.0903 KA relative to UGCAUGU

**Q.** With B28 as the binder, how does the binding signal read?
**A.** 0.139 KA relative to UGCAUGU

**Q.** How did the binding signal turn out when B29 was run?
**A.** 0.078 KA relative to UGCAUGU

**Q.** How did the binding signal turn out when B30 was run?
**A.** 0.043 KA relative to UGCAUGU

**Q.** For B31, which binding signal is on record?
**A.** 0.147 KA relative to UGCAUGU
